This is one part of the list. The energies were worked out here from pooled read counts, against the library average; single values are noisy.
molecular target: T1, Pho4 (S. cerevisiae) (UniProt P07270); assay: relative binding free energy (BET-seq); higher = weaker binding; settings: reference: library average
T1 sequence: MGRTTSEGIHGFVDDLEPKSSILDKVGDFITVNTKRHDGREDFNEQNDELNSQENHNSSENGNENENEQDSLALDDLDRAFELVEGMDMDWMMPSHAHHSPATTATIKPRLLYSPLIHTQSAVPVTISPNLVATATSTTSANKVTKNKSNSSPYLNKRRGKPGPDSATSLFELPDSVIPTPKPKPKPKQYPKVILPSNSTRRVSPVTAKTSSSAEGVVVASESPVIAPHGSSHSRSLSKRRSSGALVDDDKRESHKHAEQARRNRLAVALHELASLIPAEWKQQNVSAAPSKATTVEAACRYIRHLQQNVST

Relative binding free energy, -0.11 kcal/mol:
GGTCCCACGTGTTGTT
TAGGACACGTGGGAAT
GTGAACACGTGCGTTT
GGTAACACGTGGGGTA
TAAGTCACGTGCGTGG
TCTATCACGTGGGTTA

Relative binding free energy, 0.26 kcal/mol:
ATAGCCACGTGAGGTT
TCGAACACGTGGCTTG
TGGTACACGTGATTGA
TTGGTCACGTGACAAT
TTTGTCACGTGAATCT

Relative binding free energy, -0.01 kcal/mol:
AGGTGCACGTGGAAGA
TATGACACGTGCATGG
GGGGCCACGTGGATGT
TCTTGCACGTGGTTAG

Relative binding free energy, -0.18 kcal/mol:
GGTGGCACGTGCTTAG
TATGGCACGTGCTCGG
AGTGCCACGTGGTGGA

Relative binding free energy, 0.35 kcal/mol:
GGCAGCACGTGAGGTG

Relative binding free energy, 0.49 kcal/mol:
GGGTTCACGTGATGAT

Relative binding free energy, 0.19 kcal/mol:
GAGGTCACGTGCTTTA
TGGTTCACGTGTATTG
GATGCCACGTGAGGGG
GTGATCACGTGTATGT

Relative binding free energy, -0.23 kcal/mol:
TCAAGCACGTGGGGTA
AGGGGCACGTGTCCTG

Relative binding free energy, 0.48 kcal/mol:
TGTTTCACGTGAGAGG

Relative binding free energy, -0.19 kcal/mol:
CTCTGCACGTGGGGGG

Relative binding free energy, -0.22 kcal/mol:
GCAAGCACGTGGGTTT
ATAGGCACGTGGACGG

Relative binding free energy, 0.12 kcal/mol:
TTGGTCACGTGTTCTG
TTGTTCACGTGGGCTG
CTTGACACGTGAAGTG
AGTGTCACGTGTGATG
ATTAGCACGTGAGTCG
TGTGACACGTGTAATT
TTCTGCACGTGATTGG

Relative binding free energy, 0.16 kcal/mol:
TCATTCACGTGGGATG
GTCGTCACGTGTTAAG
TGTGGCACGTGTAAAG
GGCATCACGTGTTGTG

Relative binding free energy, 0.27 kcal/mol:
GTATTCACGTGATGGA
AGTTTCACGTGAGTTA
AGGTTCACGTGAGTCT

Relative binding free energy, -0.08 kcal/mol:
TTTCACACGTGGGTAA
TGGGGCACGTGGTTCG
ACTAACACGTGGGTGG
GTTACCACGTGGGGAT

Relative binding free energy, 0.38 kcal/mol:
TATTTCACGTGACGTC
AGGTTCACGTGCGACG

Relative binding free energy, 0.02 kcal/mol:
CTTGTCACGTGGTGAT

Relative binding free energy, -0.02 kcal/mol:
TGTTGCACGTGCGGCT
GGTAGCACGTGTGCGA
TATTCCACGTGGGGGC
ACTTGCACGTGGATGG
TGCTACACGTGGGGTT

Relative binding free energy, -0.09 kcal/mol:
CTCGGCACGTGTGGTA
TATAGCACGTGTGATG

Relative binding free energy, 0.14 kcal/mol:
GCATTCACGTGGGGGC
TCTTACACGTGTGCTG

Relative binding free energy, 0.51 kcal/mol:
GGGCTCACGTGAGGCG

Relative binding free energy, -0.12 kcal/mol:
CGGGCCACGTGTTGTG
CCTGGCACGTGTGGTA
TTAGGCACGTGTTAGG
GAAAGCACGTGTGAGG
TGCTGCACGTGGTTTA

Relative binding free energy, 0.09 kcal/mol:
TAGGTCACGTGCTGGG
ACGGTCACGTGTGTAT

Relative binding free energy, -0.16 kcal/mol:
ACAAGCACGTGGGGTG
ACGTGCACGTGGGGAT
CTGTGCACGTGTGGTC
CGAAGCACGTGGGCTG
ATAAGCACGTGGTATA

Relative binding free energy, 0.06 kcal/mol:
AATTGCACGTGTTCAG
TAGTACACGTGGATGA
TGTGTCACGTGTTATC

Relative binding free energy, 0.11 kcal/mol:
TCTATCACGTGATTGT
AGTCTCACGTGCGTTG

Relative binding free energy, -0.04 kcal/mol:
GATGGCACGTGGGATT
GTGGGCACGTGGCTGG
AATGTCACGTGGGATG
GTGACCACGTGTGTTT
GGTGCCACGTGTGGCG
GGAAGCACGTGGCGTT
TTAAGCACGTGTCTAT
GATGCCACGTGGTGGT

Relative binding free energy, 0.36 kcal/mol:
TGGATCACGTGAAGCG
CGGGTCACGTGGAAGT

Relative binding free energy, -0.27 kcal/mol:
GGGCCCACGTGGGGGT

Relative binding free energy, 0.55 kcal/mol:
GAATTCACGTGAGGAT

Relative binding free energy, -0.2 kcal/mol:
ATCTGCACGTGGTATA

Relative binding free energy, -0.07 kcal/mol:
CGTGTCACGTGGGTTT
GCTAGCACGTGTTGTT

Relative binding free energy, 0.33 kcal/mol:
GTGTTCACGTGAAATG

Relative binding free energy, 0.29 kcal/mol:
TGGTTCACGTGTGAGT
GGGTCCACGTGAAGGG
GGCTTCACGTGGGATA

Relative binding free energy, 0.37 kcal/mol:
GTTTTCACGTGTGTGC
TGATTCACGTGATGGA
TGTCTCACGTGAATGG

Relative binding free energy, 0.08 kcal/mol:
ATTTGCACGTGTGTAT
ATCATCACGTGTGGTG
GGCTGCACGTGGTTGC
TTCGACACGTGGTTGG
GGTGTCACGTGGTCGA
TAGGACACGTGGCGGT
AATATCACGTGTTTTT
CTGGGCACGTGTAGGA

Relative binding free energy, -0.1 kcal/mol:
GAAGGCACGTGGGGAT

Relative binding free energy, -0.17 kcal/mol:
AGTGGCACGTGTTTCG
ATGCGCACGTGGTTTG
CTTTGCACGTGGTGAG
CGTGGCACGTGGGAAG
ATAGACACGTGGTTAG

Relative binding free energy, -0.13 kcal/mol:
AATTGCACGTGCGTTG
TTGTGCACGTGCTTCT
GTGTACACGTGGGGGC
TGTACCACGTGTGTAG
AGTAGCACGTGTTAGA

Relative binding free energy, 0.21 kcal/mol:
TTGGGCACGTGAATCT

Relative binding free energy, 0.07 kcal/mol:
TTGTCCACGTGTATCG
CGTGTCACGTGCTATT
AATAGCACGTGTGTTT
TGCGTCACGTGTGTCT
GTATCCACGTGGGTAA
ACTATCACGTGTGTGG
GTTCACACGTGGATTG
TGAAACACGTGGAGTT
TTAAACACGTGTTGGT
GAAAGCACGTGTTGGG

Relative binding free energy, 0.2 kcal/mol:
TTATGCACGTGAGTAT
TCGTTCACGTGGTAAG
TCGGGCACGTGAGGTC
GCGGTCACGTGGGATT
TTGTACACGTGATTAA
TTTCTCACGTGTTGAA
AGGCGCACGTGAGAGT
TGGGACACGTGTGATA

Relative binding free energy, 0.03 kcal/mol:
GTGTGCACGTGTTTGG
TAGGACACGTGGTGGT
TGTGTCACGTGGCGGT
TGGTGCACGTGAGCAG
ATTGACACGTGTGCTG
TTGTCCACGTGTTTAG
GTGTGCACGTGTGGTT
TTCTACACGTGGTATG

Relative binding free energy, 0.5 kcal/mol:
ATCTTCACGTGATTTG

Relative binding free energy, 0.04 kcal/mol:
GAGAACACGTGCTGGG
TATTCCACGTGGGCGT

Relative binding free energy, -0.03 kcal/mol:
ATTTCCACGTGCGTGG
GGTCCCACGTGTGGTT
GGTTGCACGTGGGTTG
GGACGCACGTGGCGAG

Relative binding free energy, 0.24 kcal/mol:
AGCATCACGTGTGGTG
GTTATCACGTGCTTTG
TTTTTCACGTGCTCAT
ATAATCACGTGTTGGG
AGGGACACGTGAGTTA
ATTTTCACGTGTAGTA

Relative binding free energy, 0.32 kcal/mol:
GGTTTCACGTGGTGGA
ACGTTCACGTGTAGTT
GGGTTCACGTGAATGT

Relative binding free energy, 0.4 kcal/mol:
GAAGTCACGTGAAGTA

Relative binding free energy, -0.24 kcal/mol:
AGTAGCACGTGGGGCT
CATGGCACGTGGGGGG

Relative binding free energy, 0.13 kcal/mol:
GTGTTCACGTGTCATA

Relative binding free energy, -0.05 kcal/mol:
TGAAGCACGTGTGTTA
TACAGCACGTGTGGGC
TTGAGCACGTGTTGTG
ATAAACACGTGCGGGT
AGCGTCACGTGGGTCG
TATGCCACGTGTTATG

Relative binding free energy, 0.3 kcal/mol:
GGGTGCACGTGAGCAG
TTTTTCACGTGATCGT

Relative binding free energy, -0.29 kcal/mol:
ACAGGCACGTGGGGTG

Relative binding free energy, 0 kcal/mol:
GTGACCACGTGGTGAG
CATTGCACGTGGTCTT
TCTTGCACGTGTCTTG

Relative binding free energy, -0.14 kcal/mol:
AGTGGCACGTGTGGGT
TTATACACGTGGTGTA
TCGTACACGTGGGGTA
GTACACACGTGGGTGG
TTTGGCACGTGTCTCG
TTGTACACGTGGGCAG
AGCGGCACGTGGTTGA

Relative binding free energy, -0.21 kcal/mol:
ACTGGCACGTGGTTAG
ATATGCACGTGGCTTT
TACTGCACGTGGGGTA
TTTAGCACGTGCCTGG

Relative binding free energy, 0.15 kcal/mol:
GAAGGCACGTGAAGGG
TCGTCCACGTGAGGGG
GGCTACACGTGGTCGG

Relative binding free energy, 0.23 kcal/mol:
GAGAGCACGTGAGGGT
AGTATCACGTGTGGGG
ATGGTCACGTGAGTTC
GTTGGCACGTGAATCG

Relative binding free energy, 0.28 kcal/mol:
ACTATCACGTGAGTGG
ATTTTCACGTGCGGCG

Relative binding free energy, -0.32 kcal/mol:
ATGAGCACGTGTTAGG

Relative binding free energy, 0.18 kcal/mol:
CTTTTCACGTGTTAAA
GTTATCACGTGTAGTA
CGGAACACGTGTGGAT
GTTCTCACGTGGGGTT
TCTTGCACGTGAGGCG
TGGTTCACGTGTGCAT

Relative binding free energy, -0.15 kcal/mol:
CGTAGCACGTGGAGGG
TGTGACACGTGGGGGT
TAACGCACGTGGCGGT

Relative binding free energy, 0.46 kcal/mol:
CATTGCACGTGAGCAG

Relative binding free energy, 0.17 kcal/mol:
GTTCTCACGTGGGGGG
CGCGTCACGTGTGGAG

Relative binding free energy, 0.01 kcal/mol:
GCTAGCACGTGGTTTT
GGATGCACGTGTTAAG
GGGGACACGTGCGGCG

Relative binding free energy, -0.06 kcal/mol:
CTGGTCACGTGTGTCG
GGTGTCACGTGCTGCT
TATTGCACGTGGTATG
CTCGACACGTGGGGTA

Relative binding free energy, 0.25 kcal/mol:
GGAGTCACGTGTGATA

Relative binding free energy, 0.05 kcal/mol:
AGTAGCACGTGAAGTG
TAGTGCACGTGTGAGT
TATCACACGTGTATGG
TTGACCACGTGTGGGG

Relative binding free energy, 0.34 kcal/mol:
GTGTTCACGTGTACTC
AGATTCACGTGTGGGA

Relative binding free energy, 0.43 kcal/mol:
TAGATCACGTGATGTC

Relative binding free energy, 0.1 kcal/mol:
AGTAACACGTGAGGGA
AGCAACACGTGGTGAG
GTTAACACGTGCGGCG
TGCGTCACGTGTTTCA

— the BET-seq Pho4 binding data (Le et al. 2018)
